# In all, about 45,000 compounds went through this assay and about 200 (0.44%) were called active. Not shown: some 7% with an inconclusive outcome. Calls come from the whole dose curve; as a rule, active = well fitted activation curve with a large enough effect; inconclusive = small, poorly fitted or top-dose-only effect; inactive = no such curve, though single readings can be large or run the other way. The list shows a part of the results.
# Assay: qHTS of TDP-43 Inhibitors: NCGC Sytravon Library Screen; note: nearly all actives have a fitted effect of over 55% in size; for growth rescue (activation): 0% is about no effect
# Settings: yeast TDP-43 toxicity rescue, BacTiter-Glo growth, 24 h; series mostly up to 46.1 µM; growth rescue (activation): at the top concentration
# Outline: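 TDP-43-expressing yeast, pregrown in raffinose, seeded at OD600 0.02 in galactose medium with compound for 24 hr at 30 deg C. Growth read by BacTiter-Glo luminescence, so rescue of toxicity appears as activation.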
# Potency is the fitted concentration of half-maximal effect.
Compound,growth rescue (activation),Potency
CCN(CC)c1ccc(NC(=O)COc2ccc(-n3cnnn3)cc2)cc1,inactive: 9.05%,–
Cn1nccc1C(=O)Nc1ccc(S(=O)(=O)N2CCCC2)cc1,inactive: 11.5%,–
CC(C)n1cc(NC(=O)COc2ccccc2Cl)cn1,inactive: 14.5%,–
CN(C)c1ccc(/C=C2\C(=N)N3N=C(CC(=O)N4CCCCC4)SC3=NC2=O)cc1,inactive: -9.32%,–
C/C(=N\NC(=O)c1ccc(CSc2nncn2C)cc1)c1ccc(Cl)cc1,inactive: 5.96%,–
CCOC(=O)C1(Cc2ccc(OC)cc2)CCN(C(=O)c2csc(C)n2)CC1,inactive: 13.7%,–
Cn1ncc(Cl)c1C(=O)N1CCOCC1,inactive: 7.07%,–
CC(NC(=O)c1ccccc1Br)c1nnc(SCC(=O)NC2=NCCS2)n1C (centres undefined),inactive: -16.9%,–
CC(C)[C@H](NS(=O)(=O)c1ccccc1)C(=O)OCC(=O)Nc1cccc(S(N)(=O)=O)c1,inactive: 13.5%,–
COc1ccccc1C(=O)NCCC(=O)NCC1CCCCC1,inactive: 16.6%,–
CC(C)(C)c1ccc2c(c1)N(CC(=O)N1CCOCC1)C(=O)CO2,inactive: 5.53%,–
O=C(CSc1n[nH]c(-c2ccco2)n1)Nc1ccccc1F,inactive: 4.06%,–
COc1ccc(CNC(=O)Nc2nnc([C@H]3C[C@H](O)[C@@H](CO)O3)s2)cc1,inactive: -7.71%,–
CCc1cccc(NC(=O)Nc2ccc3c(c2)OCO3)c1,inactive: 11.1%,–
O=C(Nc1cnn(Cc2ccc(F)cc2)c1)c1cnn2c(C(F)F)cc(-c3ccccc3)nc12,inactive: -1.51%,–
CC1(C(=O)Nc2ccc3c(c2)OCCO3)CCN1C(=O)C1(c2ccc(Cl)cc2)CCC1 (centres undefined),inactive: 23.1%,–
COc1ccc(OC)c(S(=O)(=O)n2ccc(C)n2)c1,inactive: -0.908%,–
O=C(NC(=S)NCc1ccc(-c2nc3ccccc3s2)cc1)c1ccco1,inactive: -0.007%,–
CNC(=S)N(CCc1ccc(OC)c(OC)c1)Cc1cc2c(C)cc(C)cc2[nH]c1=O,inactive: 5.2%,–
Cc1ccc(S(=O)(=O)Nc2nc(-c3ccc(F)cc3)cs2)cc1,inactive: -13.3%,–
S=c1[nH]nc(-c2cc(-c3ccccc3)n[nH]2)n1/N=C/c1ccc(Cl)cc1,inactive: 13.7%,–
COc1ccc(C(=O)Nc2ccc(C(=O)NCCc3ccccc3)cc2)cc1,inactive: -5.04%,–
COc1cccc(NC(=O)COC(=O)C2=NN(c3ccccc3)C(=O)CC2)c1,inactive: 18.4%,–
COc1cccc(-c2cnc(C(O)c3ccc(C)cc3)[nH]2)c1 (centres undefined),inactive: -5.13%,–
COc1ccccc1CNC(=O)C(NS(=O)(=O)c1ccc2c(c1)OCCO2)C(C)C (centres undefined),inactive: 9.61%,–
COc1ccc(CC(=O)N2CCN(c3ccccc3OC)CC2)cc1,inactive: -3.07%,–
CC(C)c1ccc(NC(=O)NN2CCOCC2)cc1,inactive: -10.2%,–
Cc1cc(=O)[nH]c(SCC(=O)NCCC2=CCCCC2)n1,inactive: -4.43%,–
Cc1ccc(C2CC(c3cccs3)=NN2C(=O)CCl)cc1 (centres undefined),–,active: 12.6 µM

# Reference: PubChem BioAssay AID1347073 (National Center for Advancing Translational Sciences (NCATS), 2019)
